According to the supplement of paper PMC3724861:
Some of the results follow.

Each sequence was assayed on T1, Caupolican (Caup) homeodomain DNA-binding domain (assay: PBM E-score (8-mer, recovered from the published 9-mer minima) (E-score (dimensionless, -0.5 to 0.5)); Drosophila protein; higher = stronger relative binding preference, active = 0.31 or more).
T1 sequence: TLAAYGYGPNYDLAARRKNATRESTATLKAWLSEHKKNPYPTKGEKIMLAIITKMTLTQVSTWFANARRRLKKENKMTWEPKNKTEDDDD
Procedure, shortened: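 Caup's homeodomain DNA-binding domain (residues 214-303) was made by in vitro transcription and translation and applied at 100 nM to custom-designed protein binding microarrays. Each value is an enrichment score that gives relative binding preference for a short DNA word, with higher meaning stronger. The 8-mer values were recovered from published 9-mer scores, each of which was the minimum of its two constituent 8-mer scores. A cutoff of 0.31 marks candidate sites.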

PBM E-score, inactive:
GCTTCCCA -0.17
GGACATCC 0.163
CCAAAGGG -0.202
ACAGCAGA 0.067
CCTTGCGC -0.226
CCTACACG 0.18
ACGAAGAT -0.0153
ACACTGTC 0.157
CGCATAGC -0.137
ACATCTTA 0.207
ACTCGTCT 0.065
AATTTCAC 0.0568
AAGCACTC -0.0449
GCGGAGCA -0.216
AAGGTCAG -0.055
AGTCCGCG -0.0778
GAGTGAGC -0.0932
CTATTGGC -0.0415
CGAGGGAA -0.108
GGGAACAA 0.211
CCAACTCC -0.113
